Laboratory results as given in paper PMC4336329 (PLoS ONE, 2015).
The campaign covered roughly 310,000 compounds. About 14,000 (4.5%) showed an effect of 50% or more. Effects have a minus sign here. Some of the results follow.

target: human ether-à-go-go-related gene (hERG) potassium channel (human, UniProt Q12809); test: primary screen, population patch clamp on CHO cells stably expressing hERG
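Note: peak tail current of the secondary pulse compared with the same well before compound.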

Sequence of human ether-à-go-go-related gene (hERG) potassium channel (Q12809 whole entry, looked up): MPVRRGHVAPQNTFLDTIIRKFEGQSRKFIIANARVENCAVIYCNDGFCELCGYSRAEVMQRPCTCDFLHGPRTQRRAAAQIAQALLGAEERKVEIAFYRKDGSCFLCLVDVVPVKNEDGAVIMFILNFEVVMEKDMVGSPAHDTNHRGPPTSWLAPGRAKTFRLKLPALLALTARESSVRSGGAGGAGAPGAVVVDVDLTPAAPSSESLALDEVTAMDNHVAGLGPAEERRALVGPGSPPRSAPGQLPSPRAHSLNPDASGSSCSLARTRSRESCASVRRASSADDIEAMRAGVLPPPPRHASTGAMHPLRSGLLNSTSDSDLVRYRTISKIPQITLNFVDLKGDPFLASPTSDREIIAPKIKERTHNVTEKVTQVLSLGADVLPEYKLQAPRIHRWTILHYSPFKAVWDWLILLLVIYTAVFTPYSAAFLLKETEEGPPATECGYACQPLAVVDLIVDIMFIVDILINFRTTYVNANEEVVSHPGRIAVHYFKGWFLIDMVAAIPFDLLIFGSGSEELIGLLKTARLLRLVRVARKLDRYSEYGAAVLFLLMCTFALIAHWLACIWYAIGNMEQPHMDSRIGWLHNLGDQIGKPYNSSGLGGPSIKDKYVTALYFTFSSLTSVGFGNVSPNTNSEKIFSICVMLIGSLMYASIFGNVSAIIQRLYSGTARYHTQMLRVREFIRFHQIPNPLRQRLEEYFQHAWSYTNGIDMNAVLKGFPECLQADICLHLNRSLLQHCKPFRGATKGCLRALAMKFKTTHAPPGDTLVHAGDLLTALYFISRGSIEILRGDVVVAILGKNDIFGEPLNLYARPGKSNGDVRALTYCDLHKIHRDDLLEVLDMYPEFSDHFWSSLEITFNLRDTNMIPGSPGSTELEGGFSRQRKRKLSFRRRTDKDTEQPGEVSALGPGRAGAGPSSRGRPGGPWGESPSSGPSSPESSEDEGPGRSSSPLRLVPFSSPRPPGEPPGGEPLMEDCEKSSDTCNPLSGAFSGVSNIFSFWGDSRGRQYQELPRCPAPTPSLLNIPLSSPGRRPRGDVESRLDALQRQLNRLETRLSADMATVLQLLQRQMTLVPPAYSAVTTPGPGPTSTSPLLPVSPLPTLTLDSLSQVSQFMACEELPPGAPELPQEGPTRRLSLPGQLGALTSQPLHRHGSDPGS

SMILES	hERG current change (%, negative = inhibition) at 10uM [%]
O=C(COC(=O)c1cccc(S(=O)(=O)N2CCc3ccccc32)c1)Nc1ncc(Cl)cc1Cl	-33
N#Cc1c(C(F)(F)F)cc(-c2ccco2)nc1SCc1ccccn1	12.1
CCN(CC)CCCNC(=O)c1cc(-c2cccc(Cl)c2)on1	-60.7
COc1ccc(C(OC(=O)c2ccco2)C(=O)NCc2ccc(C)cc2)cc1 (stereo not drawn)	7.24
O=C(CSc1ncnc2c1oc1ccccc12)OCc1ccccc1	14
CCOC(=O)c1cnc(-c2ccccc2)nc1N(C)C	-1.83
CCc1noc(C)c1C(=O)Nc1ccc(F)c(F)c1	-15.4
CCCOc1ccc(/C(O)=C2/C(=O)C(=O)N(CCN(C)C)C2c2ccco2)cc1 (stereo not drawn)	10.4
O=C(CC(c1ccccc1)c1ccccc1)Nc1ccncc1	-8.13
O=S(=O)(NNC(=S)NCC1CCCO1)c1cc(Cl)ccc1Cl (stereo not drawn)	9.42
CCCSc1ccc([C@@H]2[C@@H]3C(=O)N(C)C(=O)[C@@H]3[C@]3(C(=O)OC)CCCCN23)cc1OC.O=C(O)C(F)(F)F	-11.4
COCCNC(=O)c1c(N)n(CCCn2ccnc2)c2nc3ccccc3nc12	6.86
C(=C\c1nc(-c2ccncc2)no1)/c1ccccc1	2.94
CC(CC(=O)Nc1ccc2c(c1)OCCO2)c1ccccc1 (stereo not drawn)	11.9
O=C(NC(Cc1ccccc1)C(=O)O)/C(=C\c1ccco1)NC(=O)c1ccco1 (stereo not drawn)	13.5
CCS(=O)(=O)N1CCc2nc(-c3ccccc3)sc2C1	-23.2
CCn1c(O)c(N=NC(=O)Cc2csc(N3CCOCC3)n2)c2ccccc21	-14.4
Cc1cc(NCc2ccccn2)ccc1Br	-16.5
CCCNC(=O)NC1C(NC(=O)NCCC)N(C)C(=O)N1C (stereo not drawn)	16.8

SMILES	hERG current change (%, negative = inhibition) at 10uM [%]
COC(=O)c1ccc(COc2cccc(C)c2C)cc1	-2.45
Cc1ccc(C(=O)O/N=C(\N)c2ccccn2)cc1Cl	19.1
Cn1c(N)c(C(=O)c2ccc(Cl)cc2)c(=O)n(C)c1=O	-1.07
O=C(NCc1cccc(Cl)c1)C1CCC(=O)N(C2CC2)C1 (stereo not drawn)	5.89
CN(CCC#N)C(=O)CC1(Cc2ccccc2)CCOC(C)(C)C1 (stereo not drawn)	-11.6
CN1CC(=O)N(C)c2nc(Br)n(C)c2C1=O	-6.36
O=C(N/N=C/c1ccc(Sc2ccccn2)o1)c1cc2ccccc2cc1O	12
CCC(=O)OC1c2ccccc2C(=O)N1Cc1ccccc1 (stereo not drawn)	-10.3
CC1CCCc2sc3ncn(N)c(=N)c3c21 (stereo not drawn)	6.93
Fc1ccc(-c2cc(C(F)(F)F)nc(-n3cccn3)n2)cc1	-19.2
C=CCn1c(SCc2c(F)cccc2Cl)nnc1-c1ccco1	-19.3
CC1CC(C)(C)NC(=S)N1CC(=O)N(C)Cc1ccccc1 (stereo not drawn)	-40.1
COc1ccccc1C(=O)NC(=O)COC(=O)CCS(=O)(=O)c1ccc(C)cc1	-2.87
COc1ccccc1Nc1nn2c(=O)c3ccc(C(=O)N4CCCCC4)cc3nc2s1	3.25
CCN(CC)c1ccc(/C=N/n2c(C)nc3ccccc3c2=O)cc1	-7.73
COC(=O)Nc1ccc(S(=O)(=O)N2CCC(C(=O)N3CCCC(C)C3)CC2)cc1 (stereo not drawn)	36.8
O=C(CN1CCN(CC(=O)Nc2ccc(-c3ccccc3)cc2)CC1)Nc1ccc(F)cc1	-66.2
O=C(O)c1ccc(N/N=C/c2cccc(F)c2)cc1.O=S(=O)(O)O	6.86
COCCNC(=S)N1CCC(NC(=O)Nc2ccc(C)cc2)CC1	3.92

SMILES	hERG current change (%, negative = inhibition) at 10uM [%]
Cc1cccc(NC(=O)Nc2cccc(F)c2)n1	9.39
COc1cc(C(=O)NC(=S)Nc2ccc3c(c2)C(=O)N(C)C3=O)cc(OC)c1OC	6.17
Cc1ccc(Nc2nnc(SCC(=O)Nc3cccc(S(=O)(=O)N4CCCCC4)c3)s2)cc1	9.29
Cn1cnc2c1c(=O)n(Cc1c(Cl)cccc1Cl)c(=O)n2C	-3.36
Cc1cc(C)nc(N2CCC(C(=O)N3CCN(c4cc(Cl)ccc4C)CC3)CC2)n1	-5.42
CCn1c(=S)[nH]c2cc(S(=O)(=O)N3CCCCC3)ccc21	2.47
O=C(N/N=C/c1ccccc1OC(F)F)c1cc(-c2ccncc2)nc2ccccc12	8.54
Cc1ccc(N2C(=O)C(CC(=O)Nc3cccc(F)c3)N(C3CC3)C2=O)cc1 (stereo not drawn)	-7.13
COc1cccc(C=Nc2ccc(C)c(F)c2)c1O	8.86
Cc1ccc(NC(=O)CS(=O)CC(=O)N(c2ccccc2F)C(C)C(=O)NC2CCCC2)cc1 (stereo not drawn)	-0.926
CCn1c(-c2ccccc2)c(C(=O)O)c2ccccc21	9.91
Cc1cc(NC(=O)COC(=O)[C@@H](NS(=O)(=O)c2ccc(Br)cc2)C(C)C)no1	-5.39
CCOC(=O)C1CCCCN1S(=O)(=O)c1ccc2c(c1)CC(C)N2C(=O)C1CCC1 (stereo not drawn)	-16.8
COCCCNC(=O)CCC(=O)NNc1nc2ccccc2c2nc(C)nn12	19.3
Cc1c(Cl)cccc1NC(=O)Cn1cc(C(F)(F)F)cc(Cl)c1=O	5.91
COc1ccc(OC)c(C(O)c2coc3ccc(O)c(CN(C)C)c23)c1 (stereo not drawn)	-17
Clc1ccccc1CN1CCSCC1	8.01
C=CCc1cc(S(=O)(=O)c2ccc(O)c(CC=C)c2)ccc1O	7.22
Cc1ccc[n+](Cc2ccc([N+](=O)[O-])cc2)c1.[Br-]	27.1
